Test results from US6831086B1, “Process for the inactivation of viruses with the aid of acridine derivatives” (ZLB Behring GmbH, priority 1994, dated 2004).

Assays:
[1] = tested on: cryoprotein solution after Al(OH)3 + QAE treatment; assay: Clotting activity of cryoprotein solution after virus inactivation; format: biochemical; settings: 3 hours 45° C.
PPV = assay: Inactivation of PPV, infectiousness titration; format: cell-based, Porcine parvovirus; settings: Acriflavine 0.001 mg/ml, 37° C.
BPV = assay: Inactivation of BPV, infectiousness titration; format: cell-based, Bovine parvovirus; settings: for Inactivation of the naked virus BPV, in words: Table 3, 37° C.
PI3 virus = assay: Inactivation of PI3 virus, infectiousness titration; format: cell-based, Bovine parainfluenza 3 virus
BVDV = assay: Inactivation of BVDV, infectiousness titration; format: cell-based, Bovine viral diarrhoea virus; settings: 37° C.
CPV = assay: Inactivation of CPV in protein solutions, infectiousness titration; format: cell-based, Canine parvovirus; settings: Acriflavine 0.001 mg/ml, 37° C.
Reo 3 = assay: Inactivation of Reo 3 in protein solution, infectiousness titration; format: cell-based, Reovirus type 3; settings: Beriate + Reo 3, Ethacridine lactate 0.3 mg/ml, 45° C.
IBRV = assay: Inactivation of IBRV, infectiousness titration; format: cell-based, Infectious bovine rhinotracheitis virus; settings: BACI 0.01 mg/ml, 37° C., 2 hours, EME medium
[2] = BPV, Acriflavine 0.001 mg/ml, 37° C., 2 hours, EME medium
[3] = Beriate + BPV, Acriflavine 0.001 mg/ml, 37° C., 0 h
[4] = Beriate + BPV, Acriflavine 0.001 mg/ml, 37° C., 1 h
[5] = Beriate + BPV, Acriflavine 0.001 mg/ml, 37° C., 2 h
[6] = BVDV, Acriflavine 0.001 mg/ml, 2 hours, EME medium
[7] = PI3V, BACI 0.01 mg/ml, 37° C., 2 hours, EME medium

With “3,6-diamino-10-methylacridinium, chloride and 3,6-acridineidiamine [Acriflavine]” the “Activity (clotting activity)” value ([1]; A 0.001 mg/ml) was 4.4 IU/ml, the “Activity (clotting activity)” value ([1]; A 0.01 mg/ml) was 3.9 IU/ml and the “Activity (clotting activity)” value ([1]; A 0.03 mg/ml) was 4.2 IU/ml. The Titer reduction (PPV; Beriplex + PPV, 0 h) was 0 log10/ml, the Titer reduction (PPV; Beriplex + PPV, 1 h) was 2.6 log10/ml and the Titer reduction (PPV; Beriplex + PPV, 2 h) was “≧3.1 log10/ml”. The Titer reduction (PPV; Haemate + PPV, 0 h) was 0 log10/ml, the Titer reduction (PPV; Haemate + PPV, 1 h) was 2.2 log10/ml and the Titer reduction (PPV; Haemate + PPV, 2 h) was 3.6 log10/ml. For the same molecule, the Titer reduction (PPV; Venimmun + PPV, 0 h) was 0 log10/ml, the Titer reduction (PPV; Venimmun + PPV, 1 h) was “≧2.4 log10/ml” and the Titer reduction (PPV; Venimmun + PPV, 2 h) was “≧2.4 log10/ml”. For the same molecule, the Virus inactivation (BPV; [2]) was “≧3.9 log10/ml”, the Virus titer found (BPV; [2]) was “≦1.5 log10/ml” and the Titer reduction (BPV; [3]) was 0 log10/ml. For the same molecule, the Treatment titer (BPV; [3]) was 5.4 log10/ml, the Titer reduction (BPV; [4]) was “≧3.5 log10/ml” and the Treatment titer (BPV; [4]) was “≦1.5 log10/ml”. The Titer reduction (BPV; [5]) was “≧3.5 log10/ml”, the Treatment titer (BPV; [5]) was “≦1.5 log10/ml” and the Treatment titer (BPV; Horse serum + BPV, Acriflavine 0.001 mg/ml, 37° C., 0 h) was 5.4 log10/ml. The Treatment titer (BPV; Horse serum + BPV, Acriflavine 0.001 mg/ml, 37° C., 1 h) was “≦1.5 log10/ml”, the Treatment titer (BPV; Horse serum + BPV, Acriflavine 0.001 mg/ml, 37° C., 2 h) was “≦1.5 log10/ml” and the “Inactivation of the naked virus BPV, in words” value (BPV; 2 hours) was “inactivated”. It also gave a Virus titer found (PI3 virus; PI3V, Acriflavine 0.001 mg/ml, 37° C., 2 hours, EME medium) of 3.2 log10/ml, a Virus inactivation (BVDV; [6]) of 3.7 log10/ml and a Virus titer found (BVDV; [6]) of 2.5 log10/ml. The Titer reduction (BVDV; Beriate + BVDV, Acriflavine 0.001 mg/ml, 0 h) was 0 log10/ml, the Titer reduction (BVDV; Beriate + BVDV, Acriflavine 0.001 mg/ml, 1 h) was “≧3.5 log10/ml” and the Titer reduction (BVDV; Beriate + BVDV, Acriflavine 0.001 mg/ml, 2 h) was “≧3.5 log10/ml”. The Titer reduction (BVDV; Horse serum + BVDV, Acriflavine 0.001 mg/ml, 0 h) was 0 log10/ml, the Titer reduction (BVDV; Horse serum + BVDV, Acriflavine 0.001 mg/ml, 1 h) was “≧3.6 log10/ml” and the Titer reduction (BVDV; Horse serum + BVDV, Acriflavine 0.001 mg/ml, 2 h) was “≧3.5 log10/ml”. The Titer reduction (BVDV; Venimmun + BVDV, Acriflavine 0.001 mg/ml, 0 h) was 0 log10/ml, the Titer reduction (BVDV; Venimmun + BVDV, Acriflavine 0.001 mg/ml, 1 h) was 1.3 log10/ml and the Titer reduction (BVDV; Venimmun + BVDV, Acriflavine 0.001 mg/ml, 2 h) was 4.4 log10/ml. It also gave a Titer reduction (CPV; FCS + CPV, 0 h) of 0 log10/ml, a Titer reduction (CPV; FCS + CPV, 1 h) of 1.7 log10/ml and a Titer reduction (CPV; FCS + CPV, 2 h) of 2.6 log10/ml. For the same molecule, the Titer reduction (CPV; Venimmun + CPV, 0 h) was 0.5 log10/ml, the Titer reduction (CPV; Venimmun + CPV, 1 h) was 2.0 log10/ml and the Titer reduction (CPV; Venimmun + CPV, 2 h) was 2.9 log10/ml.

CCOc1ccc2nc3cc(N)ccc3c(N)c2c1 [Ethacridine lactate] was tested, and the Titer reduction (Reo 3; 0 h) was 0.3 log10/ml, the Treatment titer (Reo 3; 0 h) was 5.1 log10/ml and the Titer reduction (Reo 3; 1 h) was “≧3.2 log10/ml”. For the same molecule, the Treatment titer (Reo 3; 1 h) was “≦1.5 log10/ml”, the Titer reduction (Reo 3; 2 h) was “≧3.2 log10/ml” and the Treatment titer (Reo 3; 2 h) was “≦1.5 log10/ml”.

In the case of Benzalkonium chloride [BACI], the “Activity (clotting activity)” value ([1]; BACI 0.05 mg/ml) is reported as 6.1 IU/ml, the “Activity (clotting activity)” value ([1]; BACI 0.1 mg/ml) is reported as 6.9 IU/ml and the Virus inactivation (IBRV) is reported as “≧3.6 log10/ml”. The Virus titer found (IBRV) was “≦1.5 log10/ml”, the Virus inactivation (BPV; BPV, BACI 0.01 mg/ml, 37° C., 2 hours, EME medium) was 0 log10/ml and the “Inactivation of the naked virus BPV, in words” value (BPV; 2 hours) was “not”. The Virus titer found (PI3 virus; BACI 0.0125 mg/ml, 0-0.03 h, 37° C., EME medium) was 6.9 log10/ml, the Virus titer found (PI3 virus; BACI 0.0125 mg/ml, 1 h, 37° C., EME medium) was 5.5 log10/ml and the Virus titer found (PI3 virus; BACI 0.025 mg/ml, 0-0.03 h, 37° C., EME medium) was 6.0 log10/ml. The Virus titer found (PI3 virus; BACI 0.025 mg/ml, 1 h, 37° C., EME medium) was “≦1.5 log10/ml”, the Virus titer found (PI3 virus; BACI 0.05 mg/ml, 1 h, 37° C., EME medium) was “≦1.5 log10/ml” and the Virus titer found (PI3 virus; BACI 0.1 mg/ml, 0-0.03 h, 37° C., EME medium) was “≦1.5 log10/ml”. The Virus titer found (PI3 virus; BACI 0.1 mg/ml, 1 h, 37° C., EME medium) was “≦1.5 log10/ml”, the Virus inactivation (PI3 virus; [7]) was “≧4.1 log10/ml” and the Virus titer found (PI3 virus; [7]) was “≦1.5 log10/ml”. The “Inactivation of PI3V, in words” value (PI3 virus; Table 3, 37° C., 2 hours) was “inactivated” and the Virus titer found (BVDV; BVDV, BACI 0.01 mg/ml, 2 hours, EME medium) was 2.3 log10/ml.
